Laboratory results published in the supplement of paper PMC4967469.
Lines with a small IC50 respond at low doses; fits outside the tested doses are given as limits. For AUC the same curve is integrated over the 256-fold range of doses and scaled to a fraction: 1 means no effect, lower means more sensitive. For some of these results: Where the top dose is marked as inferred, it was calculated from the reported fits. For some of these results: An entry number marks a drug with two screens in the source, which often give different values.

Columns and labels:
Assay in all cases: Viability of human cancer cell lines after 72 h of drug (GDSC screen)
Parthenolide = compound: C=C1C(=O)O[C@H]2[C@H]1CC/C(C)=C/CC[C@@]1(C)O[C@@H]21 [Parthenolide]; details: top dose 5 µM
Procedure: (§1)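 Human cancer cell lines in 384-well plates, medium with 10% serum, drug for 72 h over a 256-fold dose range (nine 2-fold or five 4-fold steps up to the top dose). Adherent lines were fixed and stained with the nucleic acid dye Syto60, suspension lines read with resazurin; signal relative to control wells, capped at 0 and 100%. One two-parameter sigmoid per drug and line, fitted in a mixed model over all curves with the slope shared within a line.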

PAC-1 = compound: C=CCc1cccc(/C=N/NC(=O)CN2CCN(Cc3ccccc3)CC2)c1O [PAC-1]; details: top dose 2.56 µM
Procedure: as §1

KIN001-135 = compound: COc1cc2ncn(-c3cc(OCc4ccccc4S(C)(=O)=O)c(C#N)s3)c2cc1OC [KIN001-135]; details: top dose 5 µM; top dose inferred
Procedure: as §1

BMS-708163 = compound: NC(=O)[C@@H](CCC(F)(F)F)N(Cc1ccc(-c2ncon2)cc1F)S(=O)(=O)c1ccc(Cl)cc1 [BMS-708163]; details: top dose 5 µM; screen: GDSC drug entry 1072; top dose inferred
Procedure: as §1

Row | Cell Line | AUC (Parthenolide) | IC50 (Parthenolide) [µM] | AUC (PAC-1) | IC50 (PAC-1) [µM] | AUC (KIN001-135) | IC50 (KIN001-135) [µM] | AUC (BMS-708163) | IC50 (BMS-708163) [µM]
1 | UACC-257 (melanoma, adherent) | 0.846 | > 5 | 0.979 | > 2.56 | 0.976 | > 5 | 0.843 | 4.89
2 | SK-MEL-1 (melanoma, suspension) | 0.993 | > 5 | 0.993 | > 2.56 | 0.992 | > 5 | 0.993 | > 5
3 | U-87-MG (glioma, adherent) | 0.87 | > 5 | 0.984 | > 2.56 | 0.945 | > 5 | 0.94 | > 5
4 | KU812 (chronic myeloid leukaemia, suspension) | 0.874 | 4.12 | 0.988 | > 2.56 | 0.988 | > 5 | 0.988 | > 5
5 | HD-MY-Z (Hodgkin lymphoma, adherent) | 0.83 | 3.16 | 0.972 | > 2.56 | 0.973 | > 5 | 0.976 | > 5
6 | SCH (stomach, adherent) | 0.984 | > 5 | 0.988 | > 2.56 | 0.988 | > 5 | 0.936 | > 5
7 | SW962 (urogenital system, adherent) | 0.917 | > 5 | 0.962 | > 2.56 | 0.969 | > 5 | 0.946 | > 5
8 | NCI-H747 (large intestine, adherent) | 0.953 | > 5 | 0.885 | > 2.56 | 0.973 | > 5 | 0.981 | > 5
9 | TE-10 (oesophagus, adherent) | 0.968 | > 5 | 0.98 | > 2.56 | 0.986 | > 5 | 0.988 | > 5
10 | SBC-1 (small cell lung carcinoma, suspension) | 0.971 | > 5 | 0.979 | > 2.56 | 0.989 | > 5 | 0.989 | > 5
11 | GI-ME-N (neuroblastoma, adherent) | 0.821 | 4.37 | 0.975 | > 2.56 | 0.952 | > 5 | 0.963 | > 5
12 | EW-1 (Ewing sarcoma, semi-adherent) | 0.985 | > 5 | 0.852 | 1.73 | 0.989 | > 5 | 0.984 | > 5
13 | P31-FUJ (acute myeloid leukaemia, suspension) | 0.996 | > 5 | 0.99 | > 2.56 | 0.996 | > 5 | 0.996 | > 5
14 | EW-3 (Ewing sarcoma, adherent) | 0.968 | > 5 | 0.953 | > 2.56 | 0.972 | > 5 | 0.984 | > 5
15 | TE-9 (oesophagus, adherent) | 0.906 | > 5 | 0.981 | > 2.56 | 0.986 | > 5 | 0.986 | > 5
16 | HCC2157 (breast, suspension) | 0.975 | > 5 | 0.955 | > 2.56 | 0.947 | > 5 | 0.975 | > 5
17 | KINGS-1 (glioma, adherent) | 0.971 | > 5 | 0.976 | > 2.56 | 0.98 | > 5 | 0.845 | > 5
18 | SUP-HD1 (Hodgkin lymphoma, suspension) | 0.84 | 3.2 | 0.914 | > 2.56 | 0.973 | > 5 | 0.934 | > 5
19 | NB-4 (acute myeloid leukaemia, suspension) | 0.92 | > 5 | 0.824 | 1.17 | 0.99 | > 5 | 0.979 | > 5
20 | TE-15 (oesophagus, suspension) | 0.984 | > 5 | 0.915 | > 2.56 | 0.983 | > 5 | 0.946 | > 5
21 | L-363 (myeloma, suspension) | 0.967 | > 5 | 0.928 | > 2.56 | 0.99 | > 5 | 0.991 | > 5
22 | LB1047-RCC (kidney, adherent) | 0.982 | > 5 | 0.862 | > 2.56 | 0.98 | > 5 | 0.96 | > 5
23 | RC-K8 (B-cell lymphoma, suspension) | 0.985 | > 5 | 0.934 | > 2.56 | 0.986 | > 5 | 0.992 | > 5
24 | MC-CAR (haematopoietic neoplasm, suspension) | 0.969 | > 5 | 0.812 | 1.19 | 0.989 | > 5 | 0.966 | > 5
25 | NCI-H716 (large intestine, suspension) | 0.98 | > 5 | 0.972 | > 2.56 | 0.981 | > 5 | 0.982 | > 5
26 | DU-4475 (breast, suspension) | 0.879 | 3.54 | 0.846 | 1.37 | 0.992 | > 5 | 0.991 | > 5
27 | HCC2218 (breast, suspension) | 0.984 | > 5 | 0.759 | 1.11 | 0.969 | > 5 | 0.98 | > 5
28 | COLO-829 (melanoma, adherent) | 0.897 | > 5 | 0.971 | > 2.56 | 0.974 | > 5 | 0.884 | > 5
29 | Ramos-2G6-4C10 (Burkitt lymphoma, suspension) | 0.952 | > 5 | 0.941 | > 2.56 | 0.991 | > 5 | 0.991 | > 5
